Data taken from PubChem BioAssay AID485294 (National Center for Advancing Translational Sciences (NCATS), 2010).
The campaign covered roughly 370,000 compounds. About 150 (0.041%) were called active. Inconclusive results, whose numbers are uncertain, are shown with a selection of clear calls. The call rests on the fitted dose curve; in most records, active means well fitted inhibition curve with a large enough effect; inconclusive means small, poorly fitted or top-dose-only effect; inactive means flat fitted curve, though single readings scatter. Potencies of inconclusive entries are left out as doubtful fits.

Target: Beta-lactamase (Escherichia coli (strain K12)) (UniProt P00811)
Assay: qHTS Inhibitors of AmpC Beta-Lactamase (assay with detergent); further: nearly all actives have a fitted effect of over 25% in size;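 on activity change, negative = inhibition: 0% = no-compound wells and -100% = no-enzyme wells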
Conditions: AmpC hydrolysis of nitrocefin, absorbance 480 nm, 0.01% Triton; activity change, negative = inhibition: at 114 µM (top of the series)
In short: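 AmpC (5.3 nM in the dispensed reagent) in 20 mM phosphate pH 7.0 with 0.01% (detergent screen) or 0.0001% Triton X-100 was preincubated with compounds for 15 min at room temperature. Nitrocefin was then added from an 800 uM solution, and hydrolysis was followed at 480 nm.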
Potency means the concentration at half of the fitted maximal effect; tags describe the fitted curve by direction and shape.

Sequence of UniProt P00811 (P00811 whole entry, looked up): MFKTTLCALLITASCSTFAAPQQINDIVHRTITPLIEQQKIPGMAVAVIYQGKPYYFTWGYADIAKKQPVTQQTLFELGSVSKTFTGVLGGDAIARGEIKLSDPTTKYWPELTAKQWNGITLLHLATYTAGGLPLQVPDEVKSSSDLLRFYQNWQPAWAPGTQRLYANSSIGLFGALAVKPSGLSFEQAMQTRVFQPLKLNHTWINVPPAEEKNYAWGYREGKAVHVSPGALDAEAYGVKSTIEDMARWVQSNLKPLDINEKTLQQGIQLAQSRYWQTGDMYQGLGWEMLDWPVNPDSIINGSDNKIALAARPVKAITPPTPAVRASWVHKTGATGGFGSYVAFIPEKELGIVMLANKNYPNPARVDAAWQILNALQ

Row | Structure (SMILES) | activity change, negative = inhibition | Potency
1 | CCC1Oc2ccc(C)cc2N(CC(=O)N2CCOCC2)C1=O (stereo not drawn) | inactive: 1.41% | –
2 | Cc1cccc(-c2nn(-c3ccccc3)cc2C(=O)N(C)CC(=O)Nc2ccc(N3CCOCC3)cc2)c1 | – | inconclusive [inhibitor, full curve, poor fit]
3 | NS(=O)(=O)c1cccnc1Nc1c(Cl)cccc1Cl | – | inconclusive [inhibitor, single point]
4 | O=C(C1CC2CCC1C2)N1CCN(Cc2ccc3c(c2)OCO3)CC1 (stereo not drawn) | – | inconclusive [inhibitor, partial curve]
5 | COc1cccc(C(=O)NCCSc2ccc(F)cc2)c1 | – | inconclusive [inhibitor, full curve, poor fit]
6 | CC(C)NC(=O)c1c(O)c2ccccc2[nH]c1=O | – | inconclusive [inhibitor, full curve]
7 | CCOC(=O)CSc1nc2c(sc3ccccc32)c(=O)n1Cc1ccc(OC)cc1 | inactive: -4.07% | –
8 | CC1CCCN(CCC(=O)Nc2ccc(F)c(F)c2)C1 (stereo not drawn) | – | inconclusive [inhibitor, full curve, poor fit]
9 | CC1(C(=O)NC2CCCCC2)CCC(=O)N1Cc1cccs1 (stereo not drawn) | – | inconclusive [inhibitor, full curve, poor fit]
10 | O=S1(=O)CC(O)C(NCc2cccnc2)C1 (stereo not drawn) | – | inconclusive [inhibitor, full curve]
11 | COc1cc(NC(=O)C2CCN(S(=O)(=O)c3cccs3)CC2)cc(OC)c1 | – | inconclusive [inhibitor, partial curve]
12 | CC(Oc1ccc2c(-c3ccccc3)cc(=O)oc2c1)C(=O)O (stereo not drawn) | – | inconclusive [inhibitor, full curve, poor fit]
13 | Cc1ccc(-c2nnc(SCC(=O)N/N=C/c3ccc(C)s3)n2-c2ccccc2)cc1 | – | inconclusive [inhibitor, single point]
14 | CC(=O)Nc1cccc(-c2cn3cccnc3n2)c1 | inactive: -0.649% | –
15 | Cc1ccc(NC(=O)COC(=O)/C=C/c2ccco2)cc1S(=O)(=O)N(C)C | inactive: -8.84% | –
16 | O=S(=O)(/C=C/c1ccccc1)c1ccccc1 | – | inconclusive [inhibitor, full curve, poor fit]
17 | O=C(Oc1cccc(-n2cnnn2)c1)C1CCCCC1 | – | inconclusive [inhibitor, full curve, poor fit]
18 | O=C(C1CCN(c2ncnc3c2sc2cccc(F)c23)CC1)N1CCOCC1 | – | inconclusive [inhibitor, partial curve, poor fit]
19 | CCC(=O)N/N=C(\C)CC(=O)Nc1ccc(Cl)cc1 | – | inconclusive [inhibitor, full curve, poor fit]
20 | CCCCc1nn2c(=O)cc(COC(=O)c3ccccc3NC(=O)c3cccc(C)c3)nc2s1 | inactive: -1.65% | –
21 | COCCCN1C(=O)c2ccc(C(=O)OCC(=O)NCc3cccc(OC)c3)cc2C1=O | – | inconclusive [inhibitor, full curve, poor fit]
22 | Cc1ccc(Nc2nc(N)nc(CSc3nccn3C)n2)cc1 | inactive: 2.99% | –
23 | CCc1ccc(NC(=O)c2cc(S(=O)(=O)N3CCCC3)c[nH]2)cc1 | – | inconclusive [inhibitor, full curve, poor fit]

Row | Structure (SMILES) | activity change, negative = inhibition | Potency
24 | CCCN(CC(=O)Nc1cccc(S(N)(=O)=O)c1)CC(=O)Nc1ccc(F)c(F)c1F | inactive: -3.2% | –
25 | O=C(COC(=O)c1ccc(S(=O)(=O)N2CCCC2)cc1)Nc1ccc(F)cc1F | – | inconclusive [inhibitor, partial curve, poor fit]
26 | CCSc1ncnc2c1oc1ccccc12 | – | inconclusive [inhibitor, partial curve, poor fit]
27 | COc1ccccc1NC(=O)c1cc2ccccc2o1 | inactive: 2.35% | –
28 | CN(C)C(=O)Oc1noc2cc(Cl)ccc12 | inconclusive: -15.7% [inhibitor] | –
29 | Cc1ccc(-n2nnc3ccccc3c2=O)cc1C | – | inconclusive [inhibitor, full curve, poor fit]
30 | O=C(COC(=O)CCC(=O)c1ccc(Cl)cc1)NCC1CCCO1 (stereo not drawn) | – | inconclusive [inhibitor, full curve, poor fit]
31 | C/C(N)=C(/C#N)C(=O)COC(=O)C1CCN(C(=O)c2ccc(Cl)cc2)CC1 | – | inconclusive [inhibitor, partial curve, poor fit]
32 | COc1ccc(C2C=C(c3ccccc3)Nc3nc(NC(=O)/C=C/c4ccc(Cl)cc4)nn32)cc1 (stereo not drawn) | inactive: 11.4% | –
33 | CC(C)(C)n1nc2c(c1NC(=O)COc1ccc(F)cc1)CS(=O)(=O)C2 | – | inconclusive [inhibitor, partial curve]
34 | Cc1nn(-c2ccccc2)c2sc(C(=O)Nc3cccc(Br)c3)cc12 | inactive: 11.7% | –
35 | COC(=O)c1ccccc1NC(=O)CSc1nncn1C | – | inconclusive [inhibitor, partial curve, poor fit]
36 | CCCCNc1c(-c2ccc(SC(C)CC)c(OC)c2)nc2ccc(C)cn12 (stereo not drawn) | inactive: -5.17% | –
37 | O=C(Nc1cccc(-c2ccc(N3CCOCC3)nn2)c1)c1ccccc1Cl | – | inconclusive [inhibitor, single point]
38 | COc1cccc2cc(C(=O)NCc3ccccc3Cl)c(=O)oc12 | – | inconclusive [inhibitor, partial curve, poor fit]
39 | Cc1ccc(C(=O)C(C)OC(=O)Cn2[nH]c(=O)c3ccccc3c2=O)cc1 (stereo not drawn) | – | inconclusive [inhibitor, single point]
40 | CCCCC(=O)Nc1ccc2oc(-c3cccnc3)nc2c1 | – | inconclusive [inhibitor, full curve, poor fit]
41 | O=C(COC(=O)c1ccncc1)NCc1ccccc1 | – | inconclusive [inhibitor, full curve, poor fit]
42 | Cc1nc(N2CCCC2)c2ccsc2n1 | – | inconclusive [inhibitor, full curve, poor fit]
43 | O=C(c1ccc(Br)o1)N1CCC(Cc2ccccc2)CC1 | inactive: 2.04% | –
44 | N/C(=N\OC(=O)CCC1CCCCC1)c1ccc([N+](=O)[O-])cc1 | inactive: 2.67% | –
45 | COc1cc(-c2noc(C)c2C#CCO)cc(OC)c1OC | – | inconclusive [inhibitor, full curve]
46 | Cc1ccccc1COn1nnc2ccc(S(=O)(=O)N3CCOCC3)cc21 | – | inconclusive [inhibitor, partial curve, poor fit]

Row | Structure (SMILES) | activity change, negative = inhibition | Potency
47 | CCOC(=O)N1CCN(C(=O)c2ccc(CS(=O)Cc3ccc(C)cc3)o2)CC1 (stereo not drawn) | inactive: 0.234% | –
48 | CCc1ccccc1NC(=O)c1ccccc1N1C(=O)C2C3C=CC(C3)C2C1=O (stereo not drawn) | – | inconclusive [inhibitor, partial curve]
49 | COC(=O)COc1ccc(/C=N/NS(=O)(=O)c2ccccc2)cc1 | – | inconclusive [inhibitor, full curve]
50 | Cc1ccc2cc(/C=N/NC(=O)[C@H]3C[C@@H]3c3ccccc3)c(Cl)nc2c1 | – | inconclusive [inhibitor, partial curve, poor fit]
51 | COc1cc(C2NC(=O)c3ccccc3O2)cc(OC)c1OC (stereo not drawn) | inactive: -11.7% | –
52 | Cc1[nH]c2ccc(OC(F)(F)F)cc2c1CCNCc1cccc([N+](=O)[O-])c1 | inactive: 2.26% | –
53 | CCC(C)NCC(=O)Nc1ccc(-c2nc3cc(NC(=O)CNC(C)CC)ccc3o2)cc1 (stereo not drawn) | inactive: -1.14% | –
54 | COc1ccc(N/C=C(\C#N)c2nc3ccccc3n2C)c(OC)c1 | – | inconclusive [inhibitor, full curve, poor fit]
55 | O=C(N/N=C\C=C\c1ccco1)C1COc2ccccc2O1 (stereo not drawn) | inactive: 2.64% | –
56 | CCOC(=O)c1sc(N/N=C/c2cc(Br)c(O)c(OC)c2)nc1C | – | inconclusive [inhibitor, partial curve]
57 | CCc1ccc(NC(=O)CS(=O)CC(=O)Nc2ccc(N3CCOCC3)cc2)cc1 (stereo not drawn) | – | inconclusive [inhibitor, partial curve, poor fit]
58 | COc1ccc(CCNC(=O)c2ccc3nc4cc(Cl)ccc4c(=O)n3c2)cc1OC | – | inconclusive [inhibitor, partial curve]
59 | CC(C)(CNS(=O)(=O)c1ccc2c(c1)OCCO2)N1CCOCC1 | – | inconclusive [inhibitor, full curve, poor fit]
60 | COc1ccc(C)cc1Nc1n[n+](-c2ccccc2)c(-c2ccc(OC)c(OC)c2OC)s1 | – | inconclusive [inhibitor, partial curve, poor fit]
61 | COC(=O)c1[nH]c2ccccc2c1NC(=O)CCN1CCN(C2CCCCC2)CC1 | – | inconclusive [inhibitor, full curve, poor fit]
62 | O=C(NC1CC(=O)N(c2ccc3c(c2)OCCO3)C1)N1CCC(O)CC1 (stereo not drawn) | – | inconclusive [inhibitor, full curve]
63 | CCOC(=O)C1CCN(C/C=C/c2ccccc2[N+](=O)[O-])CC1 | inactive: -9.47% | –
64 | Cc1ccc(CCCNC(=O)C2CCC(=O)N(Cc3cccc(F)c3)C2)cc1 (stereo not drawn) | inactive: -2.15% | –
65 | O=C(N/N=C/c1ccc(OC(=O)c2ccccc2)cc1)c1ccc(CN2CCOCC2)cc1 | – | inconclusive [inhibitor, full curve, poor fit]
66 | Cc1nc2ccc(NC(=O)c3ccc(Cl)s3)cc2s1 | – | inconclusive [inhibitor, full curve, poor fit]
67 | O=C(c1ccco1)N1CCCC(c2nc(-c3ccc(S(=O)(=O)NCc4ccccc4)cc3)no2)C1 (stereo not drawn) | inactive: -3.12% | –
68 | O=C(NCc1ccccc1)c1ccc(Cn2cc(C(F)(F)F)ccc2=O)cc1 | – | inconclusive [inhibitor, partial curve]
